Data on 1 substance can be found in patent US20210300981A1, “COMPOSITIONS AND METHODS FOR COMBATING MULTIDRUG-RESISTANT BACTERIA” (University of Virginia Patent Foundation, priority 2018, published 2021).

This assay relates to CRE K. pneumoniae. Type of assay: cell-based, Klebsiella pneumoniae. The note with it: 50 μM, RPMI/HEPES, 2.5×10^5 cfu/ml.

Consider “L8-GGG-L8-GGG-L8: three copies of Peptide L8 head-to-tail with a tri-glycine linker between each (RTVRCTCIGGGRTVRCTCIGGGRTVRCTCI; Artificially synthesized antibacterial peptide or conjugate)”, for which the “bactericidal activity versus negative control Peptide P5” value is on record as “killed CRE K. pneumoniae statistically significantly more effectively than Peptide P5”.
